Laboratory results published in patent US20100111959A1 (Janssen / Centocor, published 2010).

Molecular target: T1, human IL-13 receptor alpha 1 on THP-1 cells (human, UniProt P78552 22-427)
T1 sequence (looked up): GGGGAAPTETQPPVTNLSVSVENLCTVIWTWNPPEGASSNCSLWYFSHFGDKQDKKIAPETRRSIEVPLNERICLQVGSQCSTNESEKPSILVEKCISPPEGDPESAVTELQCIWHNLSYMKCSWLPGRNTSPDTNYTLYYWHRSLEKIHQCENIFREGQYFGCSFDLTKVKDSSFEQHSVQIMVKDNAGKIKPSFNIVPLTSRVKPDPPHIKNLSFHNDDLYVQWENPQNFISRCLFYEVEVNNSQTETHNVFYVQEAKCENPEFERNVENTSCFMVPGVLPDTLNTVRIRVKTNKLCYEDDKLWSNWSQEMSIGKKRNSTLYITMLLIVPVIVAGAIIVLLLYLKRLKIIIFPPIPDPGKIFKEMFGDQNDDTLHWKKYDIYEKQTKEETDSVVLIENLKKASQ
Experiment: cell-based or functional assay

B1: human wild-type IL-13 (ligand)
chain: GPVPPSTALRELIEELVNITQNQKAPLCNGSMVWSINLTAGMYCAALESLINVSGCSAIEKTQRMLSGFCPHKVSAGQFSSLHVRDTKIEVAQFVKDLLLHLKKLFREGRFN
modifications: biotinylated in the Ra2 inhibition assays
Q: How did the “IL-13-induced Stat 6 phosphorylation in THP-1 cells (flow cytometry), EC50” value turn out when B1 was run?
A: 332 pg/mL
